Laboratory results published in the supplement of paper PMC3334620.
Whole data set: some 33,000 sequences, median “E-score (-0.5 to 0.5)” near -0.036, cut for the highest 2% near 0.37. Some of the results follow.

Biological target: T1, Yer064c (UniProt P40041)
T1 sequence: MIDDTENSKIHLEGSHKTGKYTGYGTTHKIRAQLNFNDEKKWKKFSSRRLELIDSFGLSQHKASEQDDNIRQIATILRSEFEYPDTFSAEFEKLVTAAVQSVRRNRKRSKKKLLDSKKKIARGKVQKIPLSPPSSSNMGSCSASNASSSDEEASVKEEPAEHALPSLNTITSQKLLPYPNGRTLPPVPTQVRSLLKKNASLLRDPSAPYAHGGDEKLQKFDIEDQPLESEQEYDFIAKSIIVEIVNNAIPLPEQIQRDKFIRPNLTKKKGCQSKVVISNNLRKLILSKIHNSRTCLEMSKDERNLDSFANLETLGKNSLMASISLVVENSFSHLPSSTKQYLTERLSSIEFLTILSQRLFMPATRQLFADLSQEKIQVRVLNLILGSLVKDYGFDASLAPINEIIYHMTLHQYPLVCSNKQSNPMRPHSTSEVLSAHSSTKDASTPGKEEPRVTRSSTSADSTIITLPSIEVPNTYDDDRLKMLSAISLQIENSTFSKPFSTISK
Assay: PBM E-score (8-mer binding enrichment) (E-score (-0.5 to 0.5)); higher = stronger / more preferred TF binding; most listed sequences are background and not binding sites
Conditions: protein concentration: 200 nM; construct: GST-full length
Procedure, shortened: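 Full-length yeast transcription factors or their DNA-binding domains, GST-tagged and expressed with PURExpress, were applied at about 100-200 nM to universal all-10-mer Agilent arrays. These arrays had been made double-stranded by primer extension on fresh or once-stripped slides. Detection used fluorescent anti-GST, normalisation used masliner, and E-scores for ungapped eight-base words pooled with reverse complements came from the Universal PBM Analysis Suite.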

| Sequence | PBM E-score |
| --- | --- |
| CCGACTGC | 0.156 |
| AGGAACGA | -0.107 |
| ACTCTCGC | 0.248 |
| CAGACTTC | -0.103 |
| AGGAGGTA | -0.096 |
| AGCACGCC | -0.239 |
| GCAGACAA | -0.185 |
| ATTTTAGA | 0.031 |
| GGTCCAAA | -0.164 |
| AGACCCAC | -0.106 |
| ATGGGTTA | 0.142 |
| GGCCCGAA | -0.26 |
| AGAGAGAT | -0.088 |
| CCGCTTCA | -0.212 |
| ATGTACAT | -0.101 |
| CGTACCAG | -0.221 |
| AGCCGTCA | -0.103 |
| TTGGACAA | -0.0291 |
| AACCATGG | 0.218 |
| AGCCACGG | -0.0328 |
| AGATCGTA | -0.159 |
| ATGGTAAT | 0.168 |

| Sequence | PBM E-score |
| --- | --- |
| CAGTGCAG | -0.207 |
| ACGCACGC | -0.102 |
| CGTAGCCA | 0.0918 |
| CTAGGTGA | 0.0962 |
| GCGCTTGA | -0.0067 |
| AAACCTGA | 0.132 |
| ACTGAAGG | 0.112 |
| ATATTACA | 0.117 |
| GACATCCC | -0.215 |
| AGTCTAGC | -0.00976 |
| AATATAAA | 0.0817 |
| GAATCGTC | 0.262 |
| GGCAGAAC | -0.0893 |
| CTTGGTAA | 0.0918 |
| CGGTTGGC | -0.0379 |
| ATTCGAGG | -0.00719 |
| CTCAACAA | 0.0927 |
| ATCTTTGG | -0.133 |
| GATCCTAA | -0.0928 |
| CCAGAGGG | -0.166 |
| ACAACTAC | -0.0413 |
| GTAGTAAA | 0.107 |

| Sequence | PBM E-score |
| --- | --- |
| CTATCAAG | 0.0982 |
| GGGGCCTA | -0.409 |
| GTCTTCAC | 0.158 |
| ACATAATG | 0.106 |
| ATAATTAC | 0.0781 |
| ACGATAAT | 0.17 |
| GTCTTCCA | 0.139 |
| GCACGTAA | -0.151 |
| ATCCGCAG | 0.0253 |
| CGCTATAG | -0.142 |
| GTTAGGTA | -0.077 |
| ATATCGTA | -0.0392 |
| AAGGACAG | -0.184 |
| CTGCGAAC | -0.0837 |
| AATGGAGG | -0.358 |
| AGATATAC | -0.111 |
| ATAGAGCC | -0.139 |
| ACAGGAGG | -0.134 |
| GCGACGGA | -0.198 |
| GGCAGGTA | -0.236 |
| CCAAGGTA | 0.0879 |
| AAAGACTC | 0.409 |

| Sequence | PBM E-score |
| --- | --- |
| CCATGCCG | -0.072 |
| ATATTAGA | 0.0834 |
| GTGTTAAA | 0.0157 |
| AAAGGAGA | -0.0434 |
| AAGGATAA | -0.0766 |
| ACCGGCTA | -0.246 |
| GCTTGACC | -0.115 |
| GGAAGCGA | -0.112 |
| ATGTCCGG | -0.304 |
| AGAAACGC | -0.112 |
| CGTCGTCA | -0.142 |
| TCGAACCA | 0.0632 |
| ACCGATTC | 0.034 |
| GCTCGTAC | -0.067 |
| GGCGGTTA | 0.0695 |
| GCAAGAGA | -0.0253 |
| AGTCAGGC | 0.449 |
| GAATCATC | 0.48 |
| CATCTGAA | 0.183 |
| CGAAACTC | -0.142 |
